Inhibition data for 25 compounds are collected here from ChEMBL document CHEMBL5606460, “ASAP - DENV-2 NS2B-NS3 protease fluorescence single point” (2024).

Screen size: about 2,000 compounds; about 110 (5.5%) showed an effect of 50% or more. Some of the results follow.

For the assay, the target named is Genome polyprotein (dengue virus type 2) (UniProt P29990).
Setting [1] is: Thailand/16681/1984, Concentration 25.0 uM, Number of replicates 1.0.

One may read the inhibition as the change of the read-out against control, counted positive when it falls. For the compound `C[C@@H](Cc1c[nH]c2ccccc12)N1CC[C@H](n2ncc3ccccc32)C1`, the inhibition is, setting by setting: (Thailand/16681/1984, Concentration 49.5 uM, Number of replicates 2.0, Standard deviation 0.03414198186691695 %) 4.01%; (Thailand/16681/1984, Concentration 99.01 uM, Number of replicates 2.0, Standard deviation 0.33925313348092145 %) 4.54%; (Thailand/16681/1984, Concentration 198.0 uM, Number of replicates 2.0, Standard deviation 0.5533184943542987 %) 4.08%. On to `CS(=O)(=O)c1ccc(CN2CCC(c3c[nH]c4cccnc34)CC2)cc1`, for which the inhibition (Thailand/16681/1984, Concentration 49.5 uM, Number of replicates 2.0, Standard deviation 0.5966710799073923 %) was -0.147%; the inhibition (Thailand/16681/1984, Concentration 99.01 uM, Number of replicates 2.0, Standard deviation 0.18514537353696 %) is 1.01%; the inhibition (Thailand/16681/1984, Concentration 198.0 uM, Number of replicates 2.0, Standard deviation 0.21112342655361976 %) was 1.68%. In the case of `CCn1ccnc(N2CCC[C@H](c3c[nH]c4ccccc34)C2)c1=O`, the inhibition reads like this: (Thailand/16681/1984, Concentration 50.0 uM, Number of replicates 2.0, Standard deviation 0.8053197278101494 %) 11.3%; (Thailand/16681/1984, Concentration 100.0 uM, Number of replicates 2.0, Standard deviation 0.062322039130876875 %) 18.6%; (Thailand/16681/1984, Concentration 200.0 uM, Number of replicates 2.0, Standard deviation 0.5040021297369135 %) 15.4%. As for `OB1CCc2c(cccc2N2CC[C@@H](O)C2)O1`, the inhibition is -1.07% (Thailand/16681/1984, Concentration 49.5 uM, Number of replicates 2.0, Standard deviation 2.1653827241885084 %); -0.363% (Thailand/16681/1984, Concentration 99.01 uM, Number of replicates 2.0, Standard deviation 1.9510885480745654 %); 1.02% (Thailand/16681/1984, Concentration 198.0 uM, Number of replicates 2.0, Standard deviation 2.0113725552722737 %).

Turning to `COCCN(C(=O)C1CCN(c2ccc(C=O)cc2)CC1)C1CCN(C)CC1`, under setting [1], the inhibition was 17.6%. For the compound `C[C@@H](NC(=O)OCc1ccccc1)C(=O)Nc1cccc(CN)c1`, the inhibition was -7.57% (Thailand/16681/1984, Concentration 49.5 uM, Number of replicates 2.0, Standard deviation 1.8366578313187596 %) and -9.56% (Thailand/16681/1984, Concentration 198.0 uM, Number of replicates 2.0, Standard deviation 1.0835833369227144 %).

Consider `NC(=O)[C@H]1CCCN(Cc2c[nH]c3ccccc23)C1`, for which the inhibition runs as follows: (Thailand/16681/1984, Concentration 49.5 uM, Number of replicates 2.0, Standard deviation 2.5363307513649556 %) -4.76%; (Thailand/16681/1984, Concentration 99.01 uM, Number of replicates 2.0, Standard deviation 3.0476015265960577 %) -3.48%; (Thailand/16681/1984, Concentration 198.0 uM, Number of replicates 2.0, Standard deviation 3.189992230846324 %) -2.38%. Take `CCOCCN(CCOCC)C(=O)C1CCN(c2ccc(C=O)cc2)CC1`: the inhibition under setting [1] came to 14.5%. As for `Cc1cc(CO)c2cccc(Cc3cccc(C(=O)NCC(N)=O)c3)c2n1`, the inhibition runs as follows: (Thailand/16681/1984, Concentration 49.95 uM, Number of replicates 2.0, Standard deviation 0.5174294413229081 %) 2.44%; (Thailand/16681/1984, Concentration 99.9 uM, Number of replicates 2.0, Standard deviation 1.3216010889796208 %) 17.6%.

Turning to `O=Cc1ccc(N2CCC(C(=O)NCCc3cc(F)cc(F)c3)CC2)cc1`, the inhibition under setting [1] turned out to be 10.6%. `O=Cc1ccc(N2CCC(C(=O)Nc3ccc(Br)c(C(F)(F)F)c3)CC2)cc1`: under setting [1], the inhibition is 12.2%. In the case of `CCCCCC(=O)N[C@@H](Cc1ccc(CN)cc1)C(=O)N1CCCCC1`, the inhibition (Thailand/16681/1984, Concentration 49.5 uM, Number of replicates 2.0, Standard deviation 2.4035677992340028 %) was -1.07%; the inhibition (Thailand/16681/1984, Concentration 99.01 uM, Number of replicates 2.0, Standard deviation 1.814641666355821 %) worked out at 0.103%; the inhibition (Thailand/16681/1984, Concentration 198.0 uM, Number of replicates 2.0, Standard deviation 1.7246380196648983 %) was 0.931%. `O=Cc1ccc(N2CCC(C(=O)N3CCC4(CC3)NC(=O)NC4=O)CC2)cc1`: under setting [1], the inhibition stood at 12.4%. Regarding `COc1ccc2nc(C)c(C)nc2c1N`, the inhibition reads like this: (Thailand/16681/1984, Concentration 49.95 uM, Number of replicates 2.0, Standard deviation 5.411155992937637 %) -4.7%; (Thailand/16681/1984, Concentration 99.9 uM, Number of replicates 2.0, Standard deviation 6.1761869582003435 %) -2.52%.

As to `Cc1cc(CO)c2cccc(Cc3cccc(NC(=O)COc4cccc(CN)c4)c3)c2n1`, the inhibition (Thailand/16681/1984, Concentration 49.95 uM, Number of replicates 2.0, Standard deviation 2.359561979675839 %) worked out at 16.8% and the inhibition (Thailand/16681/1984, Concentration 99.9 uM, Number of replicates 2.0, Standard deviation 1.6748173047848074 %) turned out to be 34.6%. Take `CN1CCC(N(C(=O)C2CCN(c3ccc(C=O)cc3)CC2)C2CCN(C)CC2)CC1`: the inhibition under setting [1] turned out to be 11.8%. Turning to `CC(C)CN1CCN(C(=O)C2CCN(c3ccc(C=O)cc3)CC2)[C@@H](C)C1=O`, under setting [1], the inhibition was determined as 13.8%. Regarding `O=Cc1ccc(N2CCC(C(=O)NC[C@@H](c3ccc(Cl)cc3)N3CCCC3)CC2)cc1`, the inhibition under setting [1] stood at 13.2%. In the case of `O=Cc1ccc(N2CCC(C(=O)NCCN3C(=O)CSC3=O)CC2)cc1`, the inhibition under setting [1] was 15.5%. Take `Cc1cc(CO)c2cccc(Cc3cccc(C(=O)NCc4ccc(C(N)=O)cc4)c3)c2n1`: the inhibition is -6.46% (Thailand/16681/1984, Concentration 49.95 uM, Number of replicates 2.0, Standard deviation 1.5788782649320652 %) and -3.45% (Thailand/16681/1984, Concentration 99.9 uM, Number of replicates 2.0, Standard deviation 2.3363374645660926 %).

As for `COc1cc(CS(=O)(=O)CCc2ccc(F)cc2)nc(N2CCNCC2)n1`, the inhibition (Thailand/16681/1984, Concentration 49.5 uM, Number of replicates 2.0, Standard deviation 0.27080732584880574 %) is -5.05%; the inhibition (Thailand/16681/1984, Concentration 99.01 uM, Number of replicates 2.0, Standard deviation 1.3969449870138175 %) is -3.58%; the inhibition (Thailand/16681/1984, Concentration 198.0 uM, Number of replicates 2.0, Standard deviation 0.7656973069376639 %) is -2.76%. Take `CC(C)(C)c1cc(NC(=O)C2CCN(c3ccc(C=O)cc3)CC2)n(-c2ccccc2)n1`: the inhibition under setting [1] was 14.5%. Regarding `O=C(NCCn1cc([C@H]2CCOC2)cn1)c1cnn([C@H]2CCCNC2)c1`, the inhibition is -3.53% (Thailand/16681/1984, Concentration 49.5 uM, Number of replicates 2.0, Standard deviation 1.3379889637924147 %); -0.861% (Thailand/16681/1984, Concentration 99.01 uM, Number of replicates 2.0, Standard deviation 5.525628350779771 %); -4.67% (Thailand/16681/1984, Concentration 198.0 uM, Number of replicates 2.0, Standard deviation 3.8909781727376043 %). With `O=Cc1ccc(N2CCC(C(=O)N[C@H]3CCOc4ccc(F)cc43)CC2)cc1`, the inhibition under setting [1] worked out at 15.7%.

As for `O=Cc1ccc(N2CCC(C(=O)N[C@H]3CCCN(c4cnccn4)C3)CC2)cc1`, the inhibition under setting [1] was 9.34%.
